Measurements from patent US7414110B2, “Human calcium channel compositions and methods” (Merck & Co., Inc., priority 1990, dated 2008).

Tests used:
[1] = target: T1, human neuronal calcium channel α1D, α2 and β1 subunits (Homo sapiens, UniProt Q01668, S1346F/Y1433H); type: cell-based; set-up: Portions of these partial cDNA clones were ligated to generate a full-length α1D cDNA in a eukaryotic expression vector; expressed in transfected cells; settings: Bay K 8644 1 μM
[2] = target: T1, human neuronal calcium channel α1D, α2 and β1 subunits; type: cell-based; set-up: Portions of these partial cDNA clones were ligated to generate a full-length α1D cDNA in a eukaryotic expression vector; expressed in transfected cells; host or cells: HEK 293 cells (ATCC CRL1573), transient

Structure (SMILES)	tail current [1]	largest inward barium current [2] [pA]	magnitude of inward barium current [2]	tail currents [2]	block of ~50 pA inward barium current [2]
COC(=O)C1=C(C)NC(C)=C([N+](=O)[O-])C1c1ccccc1C(F)(F)F (centres unmarked) [Bay K 8644]	augmented and prolonged tail current	~160	significantly enhanced	Pronounced tail currents	
[Cd] [cadmium]					nearly completely blocked
